Test results: PubChem BioAssay AID1460 (National Center for Advancing Translational Sciences (NCATS), 2008)
Out of some 270,000 compounds screened, about 5,800 (2.1%) were called active. Inconclusive results, whose numbers are uncertain, are shown with a selection of clear calls. The call rests on the fitted dose curve; in most records, active means well fitted inhibition curve with a large enough effect; inconclusive means small, poorly fitted or top-dose-only effect; inactive means flat fitted curve, though single readings scatter. Potencies of inconclusive entries are doubtful fits and often do not repeat.
Further: nearly all actives have a fitted effect of over 55% in size.
Potency means the concentration at half of the fitted maximal effect; tags describe the fitted curve by direction and shape.

What follows are molecules tested against Microtubule-associated protein tau (Homo sapiens) (UniProt P10636) (assay: qHTS for Inhibitors of Tau Fibril Formation, Thioflavin T Binding). Settings: recombinant tau K18 P301L (four-repeat tau fragment), heparin-induced fibrillization, ThT fluorescence; series mostly up to 57.4 µM.
Chain of UniProt P10636 (P10636 whole entry, looked up, the tested form may be a part): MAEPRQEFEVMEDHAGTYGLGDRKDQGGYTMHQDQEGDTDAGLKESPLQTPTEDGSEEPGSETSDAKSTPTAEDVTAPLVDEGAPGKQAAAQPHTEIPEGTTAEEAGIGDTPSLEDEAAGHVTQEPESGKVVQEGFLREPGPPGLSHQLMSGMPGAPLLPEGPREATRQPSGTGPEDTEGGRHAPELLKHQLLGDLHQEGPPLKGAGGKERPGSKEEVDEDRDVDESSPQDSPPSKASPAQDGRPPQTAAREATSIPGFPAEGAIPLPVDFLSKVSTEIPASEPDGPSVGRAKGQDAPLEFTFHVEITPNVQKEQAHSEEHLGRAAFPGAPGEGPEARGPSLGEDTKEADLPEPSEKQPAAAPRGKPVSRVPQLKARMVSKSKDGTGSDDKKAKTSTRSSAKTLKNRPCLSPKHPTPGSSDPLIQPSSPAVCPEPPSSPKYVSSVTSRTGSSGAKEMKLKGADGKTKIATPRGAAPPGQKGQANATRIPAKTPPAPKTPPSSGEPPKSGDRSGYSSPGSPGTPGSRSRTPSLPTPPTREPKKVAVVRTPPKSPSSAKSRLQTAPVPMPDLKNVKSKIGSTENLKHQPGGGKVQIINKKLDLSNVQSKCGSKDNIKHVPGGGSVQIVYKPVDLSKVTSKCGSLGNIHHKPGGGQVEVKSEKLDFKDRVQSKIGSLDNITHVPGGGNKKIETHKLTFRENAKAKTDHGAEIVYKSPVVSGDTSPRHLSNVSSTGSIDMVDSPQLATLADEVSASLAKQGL
Procedure, shortened: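 Recombinant human tau K18 fragment […] carrying P301L, 15 uM unlabeled plus 0.24 uM Alexa 594-labeled, was fibrillized with 20 uM heparin in 100 mM sodium acetate pH 7 for 6 hr at 37 C; 30 uM ThT fluorescence read after 1 hr.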
For `CN(C)c1ccc(/C=N/NC(N)=S)cc1[N+](=O)[O-]`, the Potency was inconclusive: 10 µM [inhibitor, partial curve].
For `Cc1ccc(CN2CCSc3ccc(C(=O)NC4CCN(Cc5ccccc5)CC4)cc32)cc1`, the Potency was inconclusive: 17.8 µM [inhibitor, partial curve].
With `c1coc(-c2nc(-c3ccco3)c(-c3ccco3)nc2-c2ccco2)c1` the Potency was active: 7.94 µM.
`CCN(C(=O)CCc1nc(-c2ccc(C)cc2)no1)c1cccc(C(F)(F)F)c1` was tested, and the Potency was inconclusive: 25.1 µM [inhibitor, single point].
With `COc1ccc(-c2cc(C(=O)Nc3sc4c(c3C(N)=O)CCCC4)no2)cc1` the Potency was inconclusive: 0.708 µM [inhibitor, full curve, poor fit].
`CN(C)c1ccc(CN(C(=O)C2COc3ccccc3O2)C2CCS(=O)(=O)C2)cc1` (stereo not drawn) was tested, and the Potency was “inactive”.
`COc1ccc(/C=N/NC(=O)CNc2ccc(Br)cc2)c(C(=O)O)c1OC` was tested, and the Potency was inconclusive: 28.2 µM [inhibitor, partial curve].
With `COc1ccc2[nH]c3c(NCCCN4CCCC4=O)ncnc3c2c1` the Potency was inconclusive: 14.1 µM [inhibitor, single point].
`COc1cc2oc(=O)cc(-c3ccc(-c4ccc(N(C)C)cc4)cc3)c2c(OC)c1OC` was tested, and the Potency was inconclusive: 2.82 µM [inhibitor, full curve, poor fit].
For `COc1cccc2cc(C(=O)Nc3ccc(CC(=O)O)cc3)c(=O)oc12`, the Potency was inconclusive: 12.6 µM [inhibitor, partial curve, poor fit].
In the case of `O=C(CSc1nnc(-c2cccs2)n1Cc1ccco1)c1ccc2c(c1)OCO2`, the Potency is reported as inconclusive: 31.6 µM [inhibitor, single point].
`CC/C(C)=N/Nc1cccc([N+](=O)[O-])c1` was tested, and the Potency was inconclusive: 20 µM [inhibitor, partial curve].
For `COc1cccc(-c2nc(CS(=O)(=O)CC(=O)N3CCN(c4ccccn4)CC3)c(C)o2)c1`, the Potency was “inactive”.
With `COc1ccccc1N1CCN(C(=O)c2cc(-c3ccc(C)c(F)c3)on2)CC1` the Potency was inconclusive: 15.8 µM [inhibitor, partial curve].
In the case of `CC(C)N1C(=O)c2ccc(C(=O)O)cc2C1=O`, the Potency is reported as “inactive”.
In the case of `CCc1ccc(C(=O)CN2CCSC2=N)cc1`, the Potency is reported as inconclusive: 14.1 µM [inhibitor, partial curve].
In the case of `COC(=O)c1ccc(Sc2ccccc2NS(=O)(=O)c2ccc(NC(C)=O)cc2)nc1`, the Potency is reported as inconclusive: 35.5 µM [inhibitor, partial curve].
`CC(=O)c1cccc(NC(=O)CN2C(=O)CCc3cc(S(=O)(=O)N4CCCCC4)ccc32)c1` was tested, and the Potency was “inactive”.
`O=C(Nc1ccc(S(=O)(=O)Nc2ncccn2)cc1)c1ccc(N2CCCC2=O)cc1` was tested, and the Potency was inconclusive: 39.8 µM [inhibitor, single point].
`O=C(c1cc(-c2ccco2)nn1-c1cccc(Cl)c1)N1CCCCC1` was tested, and the Potency was active: 28.2 µM.
In the case of `COc1ccc(S(=O)(=O)N2CCN(C(=O)c3c(C)nn(-c4ccccc4)c3Cl)CC2)cc1`, the Potency is reported as “inactive”.
In the case of `Cc1ccc(S(=O)(=O)Nc2ccc3oc(=O)sc3c2)c(C)c1`, the Potency is reported as inconclusive: 20 µM [inhibitor, single point].
`Cc1ccccc1Nc1oc(-c2ccccc2)nc1-c1cccs1` was tested, and the Potency was “inactive”.
`CCOc1ccc(Nc2oc(-c3ccccc3Cl)nc2C#N)cc1` was tested, and the Potency was inconclusive: 2.82 µM [inhibitor, full curve].
For `O=C(NCc1ccc(Cl)cc1)C1CCN(c2nn3cc(-c4ccc(F)cc4)nc3s2)CC1`, the Potency was inconclusive: 0.199 µM [inhibitor, full curve].
In the case of `COC(=O)CC/C(C)=N\Nc1ccc([N+](=O)[O-])cc1[N+](=O)[O-]`, the Potency is reported as inconclusive: 7.08 µM [inhibitor, partial curve].
In the case of `O=C(N/N=C/c1ccc(Cl)cc1)c1cc2c(s1)-c1ccccc1CC2`, the Potency is reported as inconclusive: 7.94 µM [inhibitor, full curve, poor fit].
`Cc1nc2ccc(C(=O)N/N=C/c3cc([N+](=O)[O-])ccc3O)cc2[nH]1` was tested, and the Potency was inconclusive: 7.08 µM [inhibitor, partial curve].
For `CCCCCCCCC(=O)Nc1cc(C)ccc1OC`, the Potency was “inactive”.
In the case of `Cc1nc2c(C(=O)NCc3ccc4c(c3)OCO4)c[nH]n2c(=O)c1Cl`, the Potency is reported as inconclusive: 6.31 µM [inhibitor, partial curve].
With `CSC1=C(C#N)C(CC(C)C)C2=C(CCCC2=O)N1` (stereo not drawn) the Potency was “inactive”.
With `CN(C)/C=N/c1c(C#N)nnn1Cc1ccccc1` the Potency was “inactive”.
In the case of `O=C(NNC(=O)c1cc(-c2ccccc2)nc2ccccc12)Nc1cccc(Cl)c1`, the Potency is reported as inconclusive: 39.8 µM [inhibitor, single point].
For `Cc1ccc2ccc(C(Nc3cccc(C(F)(F)F)c3)c3cccnc3)c(O)c2n1` (stereo not drawn), the Potency was inconclusive: 22.4 µM [inhibitor, single point].
With `Cn1ccc(=S)c2ccccc21` the Potency was inconclusive: 8.91 µM [inhibitor, single point].
In the case of `CCn1c(=O)cc(C(F)(F)F)[nH]c1=S`, the Potency is reported as “inactive”.
With `Cc1ccc(OCc2nc(-c3ccc(Cl)cc3)n[nH]2)cc1` the Potency was “inactive”.
In the case of `O=C(Nc1nccs1)c1ccc(-c2ccc(Cl)cc2)o1`, the Potency is reported as “inactive”.
`Cn1c(=O)n(C)c2cc(S(=O)(=O)Nc3cc(Cl)ccc3O)ccc21` was tested, and the Potency was inconclusive: 20 µM [inhibitor, single point].
`c1ccc(C2[C@H]3CN(Cc4cccnc4)[C@H](c4ccccc4)C34CC2(c2cccnc2)C4)cc1` (stereo partly drawn) was tested, and the Potency was inconclusive: 0.199 µM [inhibitor, full curve, poor fit].
`CCCc1cc(=O)oc2c(CN3CCCC3)c(O)c(Cl)cc12` was tested, and the Potency was “inactive”.
For `CN(C)CCSc1nc(N)c2c3c(sc2n1)CN(C)CC3`, the Potency was inconclusive: 35.5 µM [inhibitor, single point].
With `NNc1nc2c(Cl)c(Cl)ccc2s1` the Potency was inconclusive: 15.8 µM [inhibitor, partial curve].
In the case of `COc1ccc(C(=O)/C=C2/c3ccccc3CC(C)(C)N2C)cc1OC`, the Potency is reported as “inactive”.
For `N#CCc1nn(-c2ccc(F)cc2)c(N)c1C#N`, the Potency was inconclusive: 28.2 µM [inhibitor, single point].
For `O=C(CSc1nc2ccccc2o1)NCC(=O)c1ccccc1`, the Potency was inconclusive: 14.1 µM [inhibitor, partial curve].
For `CCCCc1cc(=O)oc2cc(C)c3c(C(C)(C)C)coc3c12`, the Potency was inconclusive: 14.1 µM [inhibitor, partial curve].
`Cc1nc(N2N=C(c3ccc(Cl)cc3)CC2c2ccco2)sc1C(=O)N(C)C` (stereo not drawn) was tested, and the Potency was inconclusive: 15.8 µM [inhibitor, partial curve].
`CC(=O)/C(=N\Nc1ccc(Cl)cc1Cl)Sc1nnc(-c2ccccc2)n1-c1ccccc1` was tested, and the Potency was “inactive”.
`CCN(CC)S(=O)(=O)c1ccc(NN)nc1` was tested, and the Potency was inconclusive: 31.6 µM [inhibitor, single point].
In the case of `CCc1ccc(C2(O)CC(C(F)(F)F)=NN2C(=O)Cc2ccc([N+](=O)[O-])cc2)cc1` (stereo not drawn), the Potency is reported as “inactive”.
With `COC(=O)C(C)Sc1nc2c(c(=O)n(C)c(=O)n2C)n1CCC(C)C` (stereo not drawn) the Potency was “inactive”.
With `Cc1ccc(C2c3c(-c4cc(C)ccc4O)n[nH]c3C(=O)N2Cc2ccco2)cc1` (stereo not drawn) the Potency was inconclusive: 22.4 µM [inhibitor, single point].
For `Cc1ccc(NC(=O)CSc2n[nH]c(C)c2[N+](=O)[O-])cc1C`, the Potency was inconclusive: 25.1 µM [activator, single point].
`Oc1ccc(Nc2nc3ccccc3n3cnnc23)cc1` was tested, and the Potency was inconclusive: 8.91 µM [inhibitor, partial curve].
`CC(C)CN1CCC(=O)N(CCSc2ccc(Br)cc2)CC1` was tested, and the Potency was “inactive”.
With `CC(C)c1c(O)ccc2c1CCC1[C@@](C)(CO)CCC[C@@]21C` (stereo partly drawn) the Potency was inconclusive: 39.8 µM [inhibitor, single point].
`Cc1ccc(NNC(=O)c2cccs2)cc1Cl` was tested, and the Potency was inconclusive: 35.5 µM [inhibitor, single point].
In the case of `O=C(NCCCn1ccnc1)c1ccc(N2CCCCCC2)c([N+](=O)[O-])c1`, the Potency is reported as inconclusive: 12.6 µM [inhibitor, partial curve].
With `Cc1cccc(S(=O)(=O)NNC(=O)Cc2cccn2C)c1` the Potency was “inactive”.
`Fc1ccc(OCc2nn3c(Cn4nnc5ccccc54)nnc3s2)cc1` was tested, and the Potency was inconclusive: 39.8 µM [inhibitor, single point].
For `CC(C)(C)C(=O)Nc1nnc(-c2ccccc2)c(-c2ccccc2)n1`, the Potency was “inactive”.
With `O=C(c1ccc2c3n(nc2c1)-c1ccccc1CO3)N1CCCCC1` the Potency was inconclusive: 12.6 µM [inhibitor, partial curve].
In the case of `CCN1/C(=C/c2cc[n+](C)cc2)C=Cc2cc(C)ccc21`, the Potency is reported as active: 8.91 µM.
In the case of `CCOC(=O)C1=NN(c2ccccc2)C(=O)/C1=C\c1ccc(N(C)C)cc1`, the Potency is reported as inconclusive: 17.8 µM [inhibitor, partial curve].
`Cc1cccc(Cn2ccn(Cc3ccc(Cl)cc3)c(=O)c2=O)c1` was tested, and the Potency was inconclusive: 28.2 µM [inhibitor, single point].
With `Cc1cc(C)cc(OCC(=O)OCC(=O)NCc2ccco2)c1` the Potency was “inactive”.
`O=C1CCC(/C=C/c2ccccc2)=NN1Cc1ccc(Cl)c(Cl)c1` was tested, and the Potency was inconclusive: 28.2 µM [inhibitor, partial curve].
With `Cc1ccc(C)c(NC(=O)CN2C(=O)c3cccc4cccc2c34)c1` the Potency was “inactive”.
With `CCOC(=O)c1ccccc1NC(=O)NC(C)c1c(-n2cccc2)sc(C)c1C` (stereo not drawn) the Potency was “inactive”.
For `Cc1[nH]nc2ncc(C(=O)c3ccccc3O)cc12`, the Potency was “inactive”.
In the case of `O=C(c1cccnc1Nc1ccccc1F)N1CCOCC1`, the Potency is reported as “inactive”.
With `CCCCCCCNC1=CC(=O)CC(c2ccccc2)C1` (stereo not drawn) the Potency was “inactive”.
